Source: PubChem BioAssay AID1460 (National Center for Advancing Translational Sciences (NCATS), 2008)
Where “and” joins values, the source holds several entries; their conditions need not be identical. Equal entries are not always repeated. Among all 270,000 compounds or so, about 5,800 (2.1%) were called active. The shares of active, inactive and inconclusive entries below differ from those in the screen. Calls come from the whole dose curve; as a rule, active = well fitted inhibition curve with a large enough effect; inconclusive = small, poorly fitted or top-dose-only effect; inactive = flat fitted curve, though single readings scatter. Potencies of inconclusive entries are doubtful fits and often do not repeat.
% is set by controls: 0 for no effect and ±100 for the full control effect; potency is the fitted concentration of half-maximal effect; tags give direction and shape of the fitted curve.
Note: nearly all actives have a fitted effect of over 55% in size.

Each molecule was assayed against Microtubule-associated protein tau (Homo sapiens) (UniProt P10636) (assay: qHTS for Inhibitors of Tau Fibril Formation, Thioflavin T Binding). Settings: recombinant tau K18 P301L (four-repeat tau fragment), heparin-induced fibrillization, ThT fluorescence; series mostly up to 57.4 µM; activity, negative = inhibition: at the top concentration.
Sequence of UniProt P10636 (P10636 whole entry, looked up, the tested form may be a part): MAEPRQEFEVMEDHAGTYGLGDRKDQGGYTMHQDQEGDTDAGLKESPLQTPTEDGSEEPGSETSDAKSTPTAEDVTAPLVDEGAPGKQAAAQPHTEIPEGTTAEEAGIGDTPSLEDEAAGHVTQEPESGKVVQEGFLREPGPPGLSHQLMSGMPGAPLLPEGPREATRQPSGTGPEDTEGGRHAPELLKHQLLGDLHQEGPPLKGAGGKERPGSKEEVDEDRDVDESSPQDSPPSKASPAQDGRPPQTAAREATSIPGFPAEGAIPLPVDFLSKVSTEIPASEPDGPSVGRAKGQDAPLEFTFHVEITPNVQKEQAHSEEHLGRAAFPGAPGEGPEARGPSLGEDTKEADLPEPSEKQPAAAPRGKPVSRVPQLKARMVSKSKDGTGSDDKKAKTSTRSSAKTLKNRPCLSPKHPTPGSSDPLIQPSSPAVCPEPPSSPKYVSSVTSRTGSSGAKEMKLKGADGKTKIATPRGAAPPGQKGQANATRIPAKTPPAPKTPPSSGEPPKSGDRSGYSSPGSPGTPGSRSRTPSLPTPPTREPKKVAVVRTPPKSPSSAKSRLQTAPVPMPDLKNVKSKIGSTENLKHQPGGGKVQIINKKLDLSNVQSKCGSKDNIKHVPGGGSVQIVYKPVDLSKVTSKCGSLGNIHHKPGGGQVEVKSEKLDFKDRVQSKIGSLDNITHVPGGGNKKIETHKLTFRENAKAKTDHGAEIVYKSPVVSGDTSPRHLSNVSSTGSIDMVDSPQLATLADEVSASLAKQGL
Outline: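 K18 P301L tau (15 uM + 0.24 uM Alexa 594-tagged), heparin 20 uM, NaOAc pH 7, 6 h 37 C; ThT 30 uM, 1 h RT, ex 450/em 510 nm.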
For `CCOC(=O)/C(C#N)=C(\O)c1ccc(NC(=O)c2ccc([N+](=O)[O-])cc2)cc1`, the Potency was inconclusive: 10 µM [inhibitor, partial curve].
With `NS(=O)(=O)c1ccc(NC(=O)/C=C/c2cccc(Cl)c2)cc1` the Potency was inconclusive: 25.1 µM [activator, partial curve].
With `CCOC(=O)CN(Cc1ccccc1)S(=O)(=O)c1ccc(NC(C)=O)cc1` the “activity, negative = inhibition” value was inactive: -0.222%.
In the case of `Cc1ccc(C)c(-c2ccc(=O)n(C(C)C(=O)Nc3ccccc3C(F)(F)F)n2)c1` (stereo not given), the “activity, negative = inhibition” value is reported as inactive: -16.7%.
For `Cc1cc(-c2nc3ncccc3o2)ccc1NC(=S)NC(=O)c1ccco1`, the Potency was inconclusive: 2.82 µM [inhibitor, full curve].
With `CCc1ccc(-n2nc(C)c3c(C(=O)Nc4ccc(Cl)cc4)cc(C)nc32)cc1` the “activity, negative = inhibition” value was inactive: -6.84%.
In the case of `O=C1/C(=C\c2ccccc2)CCc2c1[nH]c1ccccc21`, the Potency is reported as inconclusive: 2.82 µM [inhibitor, full curve].
With `COc1ccc2c(c1)OCC1=C2CCC2(C)C(=O)CC=C12` (stereo not given) the Potency was active: 20 µM.
In the case of `COc1ccc(CCNc2oc(/C=C/c3ccc(OC)c(OC)c3)nc2C#N)cc1`, the Potency is reported as inconclusive: 0.794 µM [inhibitor, full curve].
With `COc1cccc(NC(=O)CSc2nnc3[nH]c(=O)cc(-c4ccccc4)n23)c1` the Potency was inconclusive: 7.94 µM [inhibitor, partial curve].
`CCOC(=O)C1CCCN(C(=O)c2ccc(C)c(NC(=O)c3nsc4ccccc34)c2)C1` (stereo not given) was tested, and the Potency was inconclusive: 22.4 µM [inhibitor, single point].
In the case of `C1CCC(C(CC2CCCCN2)C2CCCCC2)CC1` (stereo not given), the Potency is reported as “inactive and inconclusive: 126 nM [inhibitor, full curve, poor fit]”.
In the case of `O=C(NCCN1C(=O)S/C(=C\c2ccc(Cl)c(Cl)c2)C1=O)c1cnccn1`, the Potency is reported as inconclusive: 5.62 µM [inhibitor, partial curve].
With `O=[N+]([O-])C(/C=C(\Cl)[N+](=O)[O-])=C(N1CCCCC1)N1CCCCC1` the Potency was inconclusive: 14.1 µM [inhibitor, partial curve, poor fit].
For `CCN1CC2=C(OC(N)=C(C#N)C2c2cccs2)/C(=C/c2cccs2)C1` (stereo not given), the Potency was active: 15.8 µM.
For `BrC(=C\c1ccccc1)/C=N/N1CCN(c2ccccc2)CC1`, the Potency was active: 20 µM.
`O=C(O)/C=C\C(=O)Nc1ccc(N2CCN(c3ccc(Cl)cc3)CC2)cc1` was tested, and the Potency was active: 3.55 µM.
In the case of `COC(=O)c1c(NC(=O)c2ccoc2C)sc2c1CCC2`, the Potency is reported as inconclusive: 20 µM [inhibitor, partial curve, poor fit].
For `COc1ccc(OCc2nc(-c3ccc(OC)c(OC)c3)no2)cc1`, the Potency was inconclusive: 1.12 µM [inhibitor, full curve].
For `CCOC(=O)c1c(C)[nH]c(C(=O)/C(C#N)=C/c2ccc(OC)c(OC)c2)c1C`, the Potency was inconclusive: 22.4 µM [inhibitor, partial curve, poor fit].
`Cc1cccc(NC(=O)CN2C(=O)S/C(=C\c3cc(C)n(C)c3C)C2=O)c1` was tested, and the Potency was inconclusive: 25.1 µM [inhibitor, single point].
For `Cc1cccc(N=C2NN=C(c3c[nH]c4ccccc34)CS2)c1`, the Potency was active: 2.82 µM.
For `CCCN(CCC)c1ccc(/C=C/c2ccc3cc(OCC)ccc3n2)cc1`, the Potency was inconclusive: 3.16 µM [inhibitor, full curve].
For `Clc1ccc2c(N/N=C/c3cccc(Br)c3)ccnc2c1`, the Potency was inconclusive: 3.55 µM [inhibitor, full curve].
For `CCn1c(C)cc(/C=C2\NC(=O)N(Cc3ccc(Cl)cc3)C2=O)c1C`, the Potency was inconclusive: 25.1 µM [inhibitor, single point].
With `COC(=O)c1sc(NC(=O)CSc2nnnn2-c2cccc(OC)c2)nc1C` the “activity, negative = inhibition” value was inactive: -0.967%.
With `CN(C)/C=N/C(=S)Nc1ccc(Cl)c(Cl)c1` the “activity, negative = inhibition” value was inactive: -11%.
`Cc1cccc(NC(=S)NNC(=O)c2csc3c2CCC(C)C3)c1` (stereo not given) was tested, and the Potency was inconclusive: 14.1 µM [inhibitor, partial curve].
With `COc1cccc(CNc2ccc([N+](=O)[O-])cc2C)c1` the Potency was inconclusive: 25.1 µM [inhibitor, single point].
`CCOC(=O)c1cnn(-c2ncnc3c2oc2ccccc23)c1N` was tested, and the Potency was inconclusive: 2 µM [inhibitor, full curve].
With `CC(=O)Nc1ccccc1OCC(=O)c1cc(C)n(Cc2cccs2)c1C` the Potency was inconclusive: 39.8 µM [inhibitor, single point].
In the case of `CC(=O)/C=C/c1ccccc1O`, the “activity, negative = inhibition” value is reported as inactive: -14.9%.
`CC(=O)OC[C@@H]1O[C@H](CCO/N=C(\C)CCN2CCCc3nc(C)c(C)cc32)C=C[C@@H]1OC(C)=O` was tested, and the activity, negative = inhibition was inactive: -8.97% [at 11.5 µM].
`O=C(COc1ccc(Cl)cc1)Nc1ccc(O)c(-c2nc3ccccc3s2)c1` was tested, and the Potency was inconclusive: 0.355 µM [inhibitor, full curve, poor fit].
With `COc1ccc(/C(N)=N/OC(=O)c2ccc(OC)c([N+](=O)[O-])c2)cc1OC` the Potency was inconclusive: 7.94 µM [inhibitor, full curve].
With `O=S(=O)(Nc1nccs1)c1cc(Cl)ccc1Cl` the Potency was inconclusive: 39.8 µM [inhibitor, single point].
`CN(C)c1ccc(C(CNC(=O)c2ccccc2Cl)N2CCc3ccccc32)cc1` (stereo not given) was tested, and the Potency was inconclusive: 11.2 µM [inhibitor, partial curve].
In the case of `C#CCNc1nc(CC)nc2c1nnn2Cc1ccccc1F`, the “activity, negative = inhibition” value is reported as inactive: -2.16%.
With `CCCCOc1ccc(C(=O)NCCS(=O)(=O)N2CCN(c3ccccc3OC)CC2)cc1` the “activity, negative = inhibition” value was inactive: -10.3%.
With `O=C1C=C(O)c2ccccc2C1=O` the Potency was inconclusive: 8.91 µM [inhibitor, partial curve] and inconclusive: 17.8 µM [inhibitor, partial curve].
With `CCOCC(=O)Nc1ccc(-c2cn3c(C)csc3n2)cc1` the Potency was inconclusive: 14.1 µM [inhibitor, partial curve].
For `Cc1nonc1C1CCCN1C(=O)c1cc(COc2ccc(F)cc2Cl)on1` (stereo not given), the “activity, negative = inhibition” value was inactive: -2.67%.
With `COc1ccccc1N1CCN(c2ccc(=O)n(CC(=O)O)n2)CC1` the “activity, negative = inhibition” value was inactive: -0.93%.
In the case of `Cc1ccc(OCCC(=O)OCC(=O)N2c3ccccc3CC2C)cc1` (stereo not given), the Potency is reported as inconclusive: 31.6 µM [inhibitor, partial curve].
In the case of `Cc1ccc(CN2CCN(C(=O)c3ccncc3)CC2)cc1`, the “activity, negative = inhibition” value is reported as inactive: -7.79%.
`CN(CC(=O)Nc1ccc(S(=O)(=O)N2CCCC2)cc1)Cc1c(F)cccc1Cl` was tested, and the Potency was inconclusive: 3.16 µM [inhibitor, partial curve].
`CN(CCNC(=O)CCNC(=O)Cn1ccc2ccccc2c1=O)Cc1ccccc1` was tested, and the “activity, negative = inhibition” value was inactive: -12.7%.
With `Cc1nnc(N2CCC(C(=O)NCc3ccc(F)cc3)CC2)c2nn(-c3ccc(Cl)cc3)c(C)c12` the Potency was inconclusive: 39.8 µM [inhibitor, single point].
`CC1Cc2cc(/C=C3/SC(=S)N(C)C3=O)ccc2O1` (stereo not given) was tested, and the Potency was inconclusive: 2 µM [inhibitor, full curve].
For `CCN(CC)S(=O)(=O)c1ccc2nc(NC(=O)c3ccccc3OC)sc2c1`, the “activity, negative = inhibition” value was inactive: 16.6%.
`O=C(NCCc1cccc(F)c1)[C@@H]1CSC2c3ccccc3C(=O)N21` (stereo not given in full) was tested, and the Potency was inconclusive: 22.4 µM [inhibitor, partial curve].
With `COc1cc2c(cc1OC)C(c1ccc(F)cc1)N(c1ccccc1)C(=O)C2` (stereo not given) the “activity, negative = inhibition” value was inactive: -1.73%.
For `C=CCSC1=N/C(=C\c2ccsc2)C(=O)S1`, the Potency was inconclusive: 17.8 µM [inhibitor, single point].
With `Cn1c(SCc2cccc3ccccc23)nnc1-c1ccco1` the Potency was inconclusive: 39.8 µM [inhibitor, single point].
With `Cc1ccc(S(=O)(=O)NCCCCCC(=O)Nc2c(C)n(C)n(-c3ccccc3)c2=O)cc1` the “activity, negative = inhibition” value was inactive: 5.71%.
`Cc1cccc(N=C2NN=C(c3ccc4c(c3)OCCO4)CS2)c1` was tested, and the Potency was active: 11.2 µM.
In the case of `CN1/C(=C/C(=S)NC(=O)C2CCC2)C(C)(C)c2ccccc21`, the Potency is reported as inconclusive: 20 µM [inhibitor, partial curve].
With `CCOC(=O)c1c(C)[nH]c(C(=O)NNC(=O)c2ccccc2)c1C` the Potency was inconclusive: 31.6 µM [inhibitor, partial curve].
With `CCC(C)N=C1Sc2nc3ccc(C)cc3cc2CN1CCOC` (stereo not given) the Potency was inconclusive: 15.8 µM [inhibitor, partial curve].
For `Cc1ccc(N2CSC3=C(C#N)C(c4cccs4)CC(=O)N3C2)cc1` (stereo not given), the Potency was inconclusive: 17.8 µM [inhibitor, partial curve].
`CN(C)CCn1c2ccccc2c2nc3ccc([N+](=O)[O-])cc3cc21` was tested, and the Potency was inconclusive: 2 µM [inhibitor, full curve].
With `O=c1[nH]c(/C=C/c2ccccc2OC(F)F)nc2c1cnn2-c1ccccc1` the “activity, negative = inhibition” value was inactive: 7.43%.
`CC(=O)CSc1nc2cc3c(cc2cc1C#N)OCCO3` was tested, and the Potency was active: 1.58 µM.
With `Cc1c(C(=O)NN2CCCCC2)nn(-c2ccc(Cl)cc2Cl)c1-c1ccc(I)cc1` the Potency was “inactive and inconclusive: 25.1 µM [inhibitor, partial curve]”.
With `CCN(C(=O)CSc1nc(-c2ccccc2)no1)c1cccc(C)c1` the Potency was inconclusive: 22.4 µM [inhibitor, single point].
With `O=C1c2ccccc2C2=Nc3ccccc3SC(c3cccc(F)c3)C12` (stereo not given) the Potency was active: 12.6 µM.
`O=C1N/C(=N/NC(=O)c2cccc3ccccc23)S/C1=C\c1ccccc1OCc1ccccc1` was tested, and the Potency was inconclusive: 17.8 µM [inhibitor, partial curve].
For `CNC(=O)C1CCC(Cn2c(=O)c3sccc3n(CC(=O)N3CCCC3)c2=O)CC1` (stereo not given), the “activity, negative = inhibition” value was inactive: 3.21%.
With `COc1cccc(OCCNc2cc(Cl)ccc2[N+](=O)[O-])c1` the Potency was active: 8.91 µM.
`CCCCS(=O)(=O)N1C2=NC(C(=O)OC)=C(C(=O)OC)[C@@H]3N(C)c4ccccc4[C@]23C[C@H]1C(=O)OC` was tested, and the activity, negative = inhibition was inactive: 2.74% [at 11.5 µM].
